IC50 is the fitted dose that halves viability relative to control wells, and lower means more sensitive; where the fit passes the top or lowest dose, that dose stands as a limit. AUC, from the same fit, is the share of area under the viability curve across the 256-fold dose range: 1 means no effect, lower means more sensitive.
Compound: NC1(c2ccc(-c3nc4ccn5c(=O)[nH]nc5c4cc3-c3ccccc3)cc2)CCC1 [MK-2206]
Assay: Viability of human cancer cell lines after 72 h of drug (GDSC screen)
Description: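 Human cancer cell lines in 384-well plates, medium with 10% serum, drug for 72 h over a 256-fold dose range (nine 2-fold or five 4-fold steps up to the top dose). Adherent lines were fixed and stained with the nucleic acid dye Syto60, suspension lines read with resazurin; signal relative to control wells, capped at 0 and 100%. One two-parameter sigmoid per drug and line, fitted in a mixed model over all curves with the slope shared within a line.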

Work on “H2595 (mesothelioma, adherent, top dose 4 µM)” yielded an AUC of 0.803 and an IC50 of 2.97 µM.

AU565 (breast, adherent, top dose 4 µM) showed an AUC of 0.563 and an IC50 of 0.378 µM.

For “CL-11 (large intestine, adherent, top dose 4 µM)”, the AUC was 0.856 and the IC50 was 3.88 µM.

“TT2609-C02 (thyroid, adherent, top dose 4 µM)” was tested, and the AUC was 0.906 and the IC50 was > 4 µM.

“L-363 (myeloma, suspension, top dose 4 µM)” gave an AUC of 0.573 and an IC50 of 0.385 µM.

Work on “ES5 (Ewing sarcoma, adherent, top dose 4 µM)” yielded an AUC of 0.647 and an IC50 of 0.681 µM.

With no-11 (glioma, adherent, top dose 4 µM) the AUC was 0.915 and the IC50 was > 4 µM.

For “ES7 (Ewing sarcoma, adherent, top dose 4 µM)”, the AUC was 0.929 and the IC50 was > 4 µM.

For “RCC-JF (kidney, adherent, top dose 4 µM)”, the AUC was 0.699 and the IC50 was 0.98 µM.

For OVTOKO (ovary, adherent, top dose 4 µM), the AUC was 0.595 and the IC50 was 0.49 µM.

In the case of “JEKO-1 (B-cell lymphoma, suspension, top dose 4 µM)”, the AUC is reported as 0.733 and the IC50 is reported as 1.11 µM.

DSH1 (bladder, adherent, top dose 4 µM) was tested, and the AUC was 0.888 and the IC50 was > 4 µM.

“NCI-H1693 (lung adenocarcinoma, adherent, top dose 2 µM)” was tested, and the AUC was 0.854 and the IC50 was > 2 µM.

“WSU-DLCL2 (B-cell lymphoma, suspension, top dose 4 µM)” was tested, and the AUC was 0.565 and the IC50 was 0.365 µM.

“8305C (thyroid, adherent, top dose 4 µM)” was tested, and the AUC was 0.884 and the IC50 was > 4 µM.

With “CA46 (Burkitt lymphoma, suspension, top dose 4 µM)” the AUC was 0.94 and the IC50 was > 4 µM.

“KINGS-1 (glioma, adherent, top dose 4 µM)” was tested, and the AUC was 0.888 and the IC50 was > 4 µM.

For “SNG-M (endometrium, adherent, top dose 4 µM)”, the AUC was 0.939 and the IC50 was > 4 µM.

In the case of “NCI-H847 (small cell lung carcinoma, adherent, top dose 4 µM)”, the AUC is reported as 0.989 and the IC50 is reported as > 4 µM.

“KP-N-YN (neuroblastoma, adherent, top dose 4 µM)” was tested, and the AUC was 0.985 and the IC50 was > 4 µM.

In the case of “KYSE-220 (oesophagus, adherent, top dose 4 µM)”, the AUC is reported as 0.963 and the IC50 is reported as > 4 µM.

Cell Line “KLE (endometrium, adherent, top dose 4 µM)” has an AUC of 0.803 and an IC50 of 3.51 µM.

For “YT (lymphoid neoplasm, suspension, top dose 4 µM)”, the AUC was 0.531 and the IC50 was 0.3 µM.

For “PANC-03-27 (pancreas, adherent, top dose 4 µM)”, the AUC was 0.948 and the IC50 was > 4 µM.

In the case of “Capan-2 (pancreas, adherent, top dose 4 µM)”, the AUC is reported as 0.976 and the IC50 is reported as > 4 µM.

For “FTC-133 (thyroid, adherent, top dose 4 µM)”, the AUC was 0.93 and the IC50 was > 4 µM.

“RERF-LC-KJ (lung adenocarcinoma, adherent, top dose 4 µM)” was tested, and the AUC was 0.876 and the IC50 was > 4 µM.

With “KYSE-410 (oesophagus, adherent, top dose 4 µM)” the AUC was 0.91 and the IC50 was > 4 µM.

In the case of “NCI-H1417 (small cell lung carcinoma, suspension, top dose 4 µM)”, the AUC is reported as 0.696 and the IC50 is reported as 0.993 µM.

In the case of “OSC-20 (head and neck, adherent, top dose 2 µM)”, the AUC is reported as 0.957 and the IC50 is reported as > 2 µM.

In the case of “ASH-3 (thyroid, adherent, top dose 4 µM)”, the AUC is reported as 0.929 and the IC50 is reported as > 4 µM.

In the case of “DND-41 (T-cell leukaemia, suspension, top dose 4 µM)”, the AUC is reported as 0.922 and the IC50 is reported as > 4 µM.

With “NCI-H1623 (lung adenocarcinoma, adherent, top dose 4 µM)” the AUC was 0.835 and the IC50 was 3.51 µM.

In the case of “IM-9 (myeloma, suspension, top dose 4 µM)”, the AUC is reported as 0.992 and the IC50 is reported as > 4 µM.

In the case of “BPH-1 (prostate, adherent, top dose 2 µM)”, the AUC is reported as 0.903 and the IC50 is reported as > 2 µM.

With “LB2518-MEL (melanoma, adherent, top dose 4 µM)” the AUC was 0.98 and the IC50 was > 4 µM.

With JHH-4 (liver, adherent, top dose 4 µM) the AUC was 0.877 and the IC50 was 3.99 µM.

“HCC2157 (breast, suspension, top dose 4 µM)” was tested, and the AUC was 0.541 and the IC50 was 0.325 µM.

For “EMC-BAC-2 (lung adenocarcinoma, adherent, top dose 4 µM)”, the AUC was 0.723 and the IC50 was 1.22 µM.

In the case of “EW-24 (Ewing sarcoma, semi-adherent, top dose 4 µM)”, the AUC is reported as 0.992 and the IC50 is reported as > 4 µM.

“BFTC-905 (bladder, adherent, top dose 4 µM)” was tested, and the AUC was 0.936 and the IC50 was > 4 µM.

“COLO-824 (breast, adherent, top dose 4 µM)” was tested, and the AUC was 0.966 and the IC50 was > 4 µM.

With “MOLT-13 (T-cell lymphoblastic leukaemia, suspension, top dose 4 µM)” the AUC was 0.972 and the IC50 was > 4 µM.

For “KARPAS-620 (haematopoietic neoplasm, suspension, top dose 4 µM)”, the AUC was 0.521 and the IC50 was 0.282 µM.

For “DAN-G (pancreas, adherent, top dose 4 µM)”, the AUC was 0.953 and the IC50 was > 4 µM.

In the case of “OCI-AML5 (acute myeloid leukaemia, suspension, top dose 4 µM)”, the AUC is reported as 0.934 and the IC50 is reported as > 4 µM.

In the case of “PWR-1E (prostate, adherent, top dose 4 µM)”, the AUC is reported as 0.938 and the IC50 is reported as > 4 µM.

Cell Line T98G (glioma, adherent, top dose 4 µM) has an AUC of 0.86 and an IC50 of 2.95 µM.

With “HDQ-P1 (breast, adherent, top dose 4 µM)” the AUC was 0.954 and the IC50 was > 4 µM.

For “SW982 (soft tissue, adherent, top dose 4 µM)”, the AUC was 0.98 and the IC50 was > 4 µM.

“HCC1428 (breast, adherent, top dose 4 µM)” was tested, and the AUC was 0.963 and the IC50 was > 4 µM.

In the case of “NCI-H2227 (small cell lung carcinoma, semi-adherent, top dose 4 µM)”, the AUC is reported as 0.985 and the IC50 is reported as > 4 µM.

In the case of “HEC-1 (endometrium, adherent, top dose 4 µM)”, the AUC is reported as 0.908 and the IC50 is reported as > 4 µM.

“OCI-M1 (acute myeloid leukaemia, suspension, top dose 4 µM)” was tested, and the AUC was 0.991 and the IC50 was > 4 µM.

“H2373 (mesothelioma, adherent, top dose 4 µM)” gave an AUC of 0.681 and an IC50 of 0.92 µM.

For “NCI-H1341 (small cell lung carcinoma, suspension, top dose 4 µM)”, the AUC was 0.946 and the IC50 was > 4 µM.

For “EW-7 (Ewing sarcoma, semi-adherent, top dose 4 µM)”, the AUC was 0.941 and the IC50 was > 4 µM.

“TE-5 (oesophagus, adherent, top dose 4 µM)” was tested, and the AUC was 0.841 and the IC50 was 3.41 µM.

For “EBC-1 (lung squamous cell carcinoma, adherent, top dose 4 µM)”, the AUC was 0.835 and the IC50 was 3.11 µM.

With “EJM (lymphoid neoplasm, semi-adherent, top dose 4 µM)” the AUC was 0.963 and the IC50 was > 4 µM.

In the case of “NCI-H647 (non-small cell lung carcinoma, adherent, top dose 4 µM)”, the AUC is reported as 0.972 and the IC50 is reported as > 4 µM.

“AMO-1 (haematopoietic neoplasm, suspension, top dose 4 µM)” was tested, and the AUC was 0.906 and the IC50 was > 4 µM.

“KARPAS-299 (anaplastic large cell lymphoma, suspension, top dose 4 µM)” showed an AUC of 0.904 and an IC50 of 3.74 µM.

For SJSA-1 (bone, adherent, top dose 4 µM), the AUC was 0.901 and the IC50 was > 4 µM.

“Saos-2 (osteosarcoma, adherent, top dose 4 µM)” was tested, and the AUC was 0.831 and the IC50 was > 4 µM.

“WM1552C (melanoma, adherent, top dose 4 µM)” was tested, and the AUC was 0.958 and the IC50 was > 4 µM.

Work on “CAL-29 (bladder, adherent, top dose 4 µM)” yielded an AUC of 0.736 and an IC50 of 1.26 µM.

Work on “SJRH30 (rhabdomyosarcoma, adherent, top dose 4 µM)” yielded an AUC of 0.862 and an IC50 of 3.62 µM.

In the case of “COR-L321 (lung, suspension, top dose 4 µM)”, the AUC is reported as 0.989 and the IC50 is reported as > 4 µM.

“MOG-G-UVW (glioma, adherent, top dose 4 µM)” was tested, and the AUC was 0.898 and the IC50 was > 4 µM.

“CAL-85-1 (breast, adherent, top dose 4 µM)” was tested, and the AUC was 0.925 and the IC50 was > 4 µM.

In the case of “DBTRG-05MG (glioma, adherent, top dose 4 µM)”, the AUC is reported as 0.939 and the IC50 is reported as > 4 µM.

For “SAT (head and neck, adherent, top dose 4 µM)”, the AUC was 0.753 and the IC50 was 2.07 µM.

“23132-87 (stomach, adherent, top dose 4 µM)” gave an AUC of 0.626 and an IC50 of 0.564 µM.

In the case of “SBC-1 (small cell lung carcinoma, suspension, top dose 4 µM)”, the AUC is reported as 0.883 and the IC50 is reported as > 4 µM.

Work on “D-263MG (glioma, adherent, top dose 4 µM)” yielded an AUC of 0.846 and an IC50 of 3.9 µM.

With “GDM-1 (acute myeloid leukaemia, suspension, top dose 4 µM)” the AUC was 0.97 and the IC50 was > 4 µM.

“NCI-H69 (small cell lung carcinoma, suspension, top dose 4 µM)” showed an AUC of 0.801 and an IC50 of 2.21 µM.

“H2369 (mesothelioma, adherent, top dose 4 µM)” showed an AUC of 0.802 and an IC50 of 2.04 µM.

In the case of “HOP-62 (lung adenocarcinoma, adherent, top dose 4 µM)”, the AUC is reported as 0.926 and the IC50 is reported as > 4 µM.

Cell Line “CRO-AP2 (B-cell lymphoma, suspension, top dose 4 µM)” has an AUC of 0.499 and an IC50 of 0.249 µM.

“LS-513 (large intestine, adherent, top dose 4 µM)” showed an AUC of 0.702 and an IC50 of 0.949 µM.

Source: the supplement of paper PMC4967469
